The values below come from ChEMBL document CHEMBL4888484, “Replenishing the malaria drug discovery pipeline: Screening and hit evaluation of the MMV Hit Generation Library 1 (HGL1) against asexual blood stage Plasmodium falciparum ,using a nano luciferase reporter read-out” (2022).

Structures are written as SMILES. Screen size: about 150,000 compounds; about 540 (0.36%) showed an effect of 50% or more. The list shows a part of the results.

By % Inhibition is commonly meant the relative decrease from the control value, in per cent.

In the test the test system is Plasmodium falciparum. The test is described as follows: Primary screen in NF54 nanoGlo assay, in single point, at 2uM, 72h; a lower Z score goes with more inhibition. It is filed as functional, Erythrocyte. Particulars: timepoint 72 hour.
For `CC1CCCCN1c1nc2nonc2nc1N1CCCCC1C` (stereo unspecified), the “% Inhibition” value was -1% and the Z score is listed as 0.13.

As to `Cc1cc(O)ccc1NC(=O)CCc1cscn1`, the “% Inhibition” value is -11% and the Z score is given as 1.94.

Regarding `O=C(c1cccc(OC2CN(C3CCCCCC3)C2)c1)N1CCCC1`, the “% Inhibition” value is on record as -4% and the Z score is 0.48.

Turning to `Cc1c(NC(=O)N2CCCC2)cccc1C(=O)N1CCOCC1`, the “% Inhibition” value was 2% and the Z score was -0.27.

Regarding `COc1ccccc1O[C@@H](C)C(=O)N1CCN(c2ccc(C)cc2)C(=O)C1`, the “% Inhibition” value is listed as -8% and the Z score amounted to 1.24.

On to `OCC1(N(Cc2ccccc2)Cc2cn3cccnc3n2)CCCC1`, for which the “% Inhibition” value was -4% and the Z score came to 0.66.

As for `O[C@H]1CCCN(c2ncc(F)c(N3CCOCC3)n2)CC1`, the “% Inhibition” value is -1% and the Z score came out at 0.19.

Turning to `COCC(=O)N(CCCN1CCCC1)[C@H]1CCCN(C(=O)c2cccc(C)c2)C1`, the “% Inhibition” value is recorded as -1% and the Z score turned out to be 0.1.

As to `CC(C)(C)c1cnc(CN[C@H]2CCc3ncnn3C2)o1`, the “% Inhibition” value is reported as -16% and the Z score is given as 1.85.

`COc1ccc(C(C)=O)cc1COc1ccccc1C(=O)NCc1ccccc1`: the “% Inhibition” value is -18% and the Z score was found to be 2.37.

Regarding `Cc1c(Cl)cccc1NC(=O)CCCC(=O)c1ccccc1`, the “% Inhibition” value is -7% and the Z score is on record as 1.18.

Consider `COc1ccc(C(NC2CCNC2=O)c2ccccc2Cl)cc1` (stereo unspecified), for which the “% Inhibition” value is listed as -8% and the Z score is 0.85.

Turning to `Cn1cc(NC(=O)N[C@H](c2ccccc2)C2CC2)ccc1=O`, the “% Inhibition” value is given as -6% and the Z score worked out at 0.88.

In the case of `c1cn([C@H]2CCCN(Cc3nnc(C4CC4)s3)C2)nn1`, the “% Inhibition” value is reported as -5% and the Z score is 1.

Regarding `Cc1ccc(NS(=O)(=O)c2cc(-c3nc(-c4ccc(Cl)cc4)no3)cs2)c(C)c1`, the “% Inhibition” value is -11% and the Z score came to 1.26.

In the case of `OC[C@H]1CCCN1c1ncnc2ccc(F)cc12`, the “% Inhibition” value is reported as -4% and the Z score worked out at 0.44.

Take `CN1CCN(c2cc(Nc3ccccc3)ncn2)CC1`: the “% Inhibition” value was -16% and the Z score is 1.97.

`CNc1ncccc1C(=O)N[C@@H]1CCOC[C@@H]1Oc1ccc(C)nc1`: the “% Inhibition” value is 2% and the Z score was -0.33.

As to `COC[C@H](C)N(Cc1cccc2ccccc12)C(=O)Cn1nnnc1N`, the “% Inhibition” value is given as -17% and the Z score is reported as 2.22.

For the compound `COc1cccc(OC)c1C(=O)Nc1ccc(-n2ccnc2C(C)C)cc1`, the “% Inhibition” value worked out at 10% and the Z score was -1.34.

As to `Cc1cc(CN(C)C(=O)c2csc(-c3ccco3)n2)no1`, the “% Inhibition” value is reported as -6% and the Z score is 0.75.

Turning to `Cc1cnccc1NCCNCc1nc(C(C)C)cs1`, the “% Inhibition” value is given as 6% and the Z score is -0.58.

For `Cc1cccc(CN2CCC(N(c3ccc(F)cc3)S(=O)(=O)c3cccc(C)c3)CC2)c1`, the “% Inhibition” value was -4% and the Z score amounted to 0.34.

As to `COc1ccc(CNC(=O)[C@H]2Nc3cc(F)ccc3S(=O)(=O)N2)cc1`, the “% Inhibition” value is reported as -12% and the Z score was determined as 2.25.

In the case of `COc1cccc(CO[C@H]2CCCN(C(=O)CC(C)C)C2)c1`, the “% Inhibition” value is on record as -9% and the Z score is 1.09.

On to `CN(Cc1nccs1)C1CCC(CO)CC1` (stereo unspecified), for which the “% Inhibition” value is -13% and the Z score is on record as 1.7.

Consider `CCOC(=O)N1CCC(NC(=O)c2c[nH]c3cc(Cl)ccc23)CC1`, for which the “% Inhibition” value is recorded as -5% and the Z score is 0.99.

`COc1cc(C)nc(N2CCC(O)(c3ccnn3C)CC2)n1`: the “% Inhibition” value worked out at 1% and the Z score is reported as -0.14.

On to `O=C(O)Cn1nc(C2CCCC2)nc1CCCc1cn[nH]c1`, for which the “% Inhibition” value is listed as -2% and the Z score is reported as 0.38.

Turning to `CCCCNC(=O)CN(C)C(=O)c1cnc(NCC)nc1`, the “% Inhibition” value amounted to 10% and the Z score is given as -1.88.

For the compound `O=C(Nc1cn[nH]c1)[C@@H]1CCCN1c1ncnc2sccc12`, the “% Inhibition” value was -7% and the Z score came to 1.37.

Turning to `O=C(Nc1ccccc1NCC(=O)N1CCNC1=O)c1cccs1`, the “% Inhibition” value stood at 1% and the Z score is -0.25.

With `O=c1[nH]c2ccccc2c(-c2ccccc2)c1-c1cc(-c2ccccc2)c2cc(Cl)ccc2n1`, the “% Inhibition” value is -1% and the Z score is recorded as 0.19.

For the compound `O=C(NCCc1cn2c(n1)CCCC2)NCC[C@H](O)c1ccccc1`, the “% Inhibition” value was -8% and the Z score was found to be 1.52.

With `C[C@H]1Cc2ccc(CNC(=O)C3CCC3)cc2N1C(=O)c1ccccc1`, the “% Inhibition” value is 11% and the Z score is recorded as -1.31.

Consider `CC(Nc1ccnc(Cc2ccccc2)n1)C1CCOC1` (stereo unspecified), for which the “% Inhibition” value is recorded as -4% and the Z score is 0.38.

For the compound `CCOCc1nc(CCS(=O)(=O)c2ccc(C)cc2)no1`, the “% Inhibition” value is reported as -16% and the Z score was determined as 1.59.

Turning to `CCc1cnc(N)nc1N[C@H]1CC(=O)N(c2ccc(F)cc2)C1`, the “% Inhibition” value is listed as 4% and the Z score is -0.59.

In the case of `O=C(C(=O)N1CCN(Cc2ccncc2)[C@@H]2CS(=O)(=O)C[C@@H]21)c1ccco1`, the “% Inhibition” value is given as -1% and the Z score was 0.11.

Regarding `CCN1CCC[C@@H]1CN(C)C(=O)c1ncoc1-c1ccc2c(c1)OCCO2`, the “% Inhibition” value is listed as -3% and the Z score is given as 0.44.

Turning to `COC(=O)[C@@H]1CCCN1C(=O)c1c(CC2CCCC2)n(Cc2cccnc2)c(C)cc1=O`, the “% Inhibition” value turned out to be 19% and the Z score was -2.47.

With `O=C1[C@@H]2CCCCN2C(=O)N1CC1(c2ccccc2F)CC1`, the “% Inhibition” value is -23% and the Z score amounted to 3.48.

Take `COc1cc(CNC(=O)C2C3CCCCC32)ccc1C(=O)O` (stereo unspecified): the “% Inhibition” value is given as -16% and the Z score is 1.51.
